Screen size: about 45,000 compounds; about 200 (0.44%) were called active. Another 7% or so got no clear call; they are omitted. Calls follow the shape of the dose curve; as a rule, active = well fitted activation curve with a large enough effect; inconclusive = small, poorly fitted or top-dose-only effect; inactive = no such curve, though single readings can be large or run the other way. The list shows a part of the results.
Assay: qHTS of TDP-43 Inhibitors: NCGC Sytravon Library Screen; also: 0% is about no effect; nearly all actives have a fitted effect of over 55% in size
Details: yeast TDP-43 toxicity rescue, BacTiter-Glo growth, 24 h; series mostly up to 46.1 µM; growth rescue (activation): at the top concentration
Method in brief: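 TDP-43-expressing yeast, pregrown in raffinose, seeded at OD600 0.02 in galactose medium with compound for 24 hr at 30 deg C. Growth read by BacTiter-Glo luminescence, so rescue of toxicity appears as activation.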

| SMILES | growth rescue (activation) |
| --- | --- |
| O=C(CCNC(=O)c1ccccc1Cl)NCCc1ccc(C(F)(F)F)cc1 | inactive: 17.4% |
| CN(C)C(=O)CSc1nnc(-c2ccc(S(=O)(=O)N3CCCC3)cc2)n1C | inactive: -17.5% |
| Cc1csc(NC(=O)C(NC(=O)c2ccccc2F)C(C)C)n1 (configuration not stated) | inactive: -2.88% |
| O=C(CCn1nnc2ccccc21)N1CCN(c2ccccc2)CC1 | inactive: 30.2% |
| O=C(NCc1nc(-c2ccccc2)no1)Nc1ccc(F)cc1 | inactive: 7.25% |
| C=C(C)Cn1c(CCn2c3ccccc3c3ccccc32)n[nH]c1=S | inactive: 25.5% |
| CSc1ccc(CNCC(O)c2ccccc2)cc1 (configuration not stated) | inactive: 5.28% |
| Cc1ccc2c(COC(=O)C3=COCCO3)cc(=O)oc2c1 | inactive: -26% |
| COc1ccc(Cl)cc1NC(=S)N(CCN1CCOCC1)C1CCN(C(C)=O)CC1 | inactive: 14.6% |
| CN(CC(=O)NCc1ccco1)CC(=O)Nc1ccc(F)c(F)c1F | inactive: 6.88% |
| COc1cccc(C(=O)Nc2c[nH]c(=O)[nH]c2=O)c1 | inactive: 31.4% |
| COC(=O)c1ccc(OC)c(CN2CCCN(Cc3ccc(F)cc3)S2(=O)=O)c1 | inactive: -3.16% |
| CCOc1ccccc1N1CCN(C/C=C/c2ccc(N(C)C)cc2)CC1 | inactive: 13% |
| COCCn1c(C)nnc1SCC(=O)NNC(=O)c1ccc(Cl)cc1 | inactive: -3.82% |
| COc1ccc(CNS(=O)(=O)NCc2ccc(OC)c(OC)c2)cc1OC | inactive: -16.9% |
| NS(=O)(=O)c1ccc(NC(=S)Nc2ccc(S(=O)(=O)N3CCCC3)cc2)cc1 | inactive: -6.31% |
| CC(=O)Nc1ccc(S(=O)(=O)NNC(=O)c2cccc(Br)c2)cc1 | inactive: 9.9% |
| CC1Cc2ccccc2N1CC(=O)Nc1ccc(N2CCOCC2)cc1 (configuration not stated) | inactive: 8.09% |
| CCSc1nnc(NC(=O)c2nc(S(=O)(=O)Cc3ccc(F)cc3)ncc2Cl)s1 | inactive: -2.59% |
| C/C(=N\NC(=O)c1ccn(C)n1)c1ccco1 | inactive: -4.81% |
| COc1ccc(CNC(=O)CN(C)S(=O)(=O)c2ccc(Br)s2)cc1 | inactive: -5.07% |
| CC(CN1C(C)CCCC1C)OC(=O)c1ccccc1Br (configuration not stated) | inactive: 5.72% |
| O=C(CSc1nnc2c(n1)[nH]c1ccc(S(=O)(=O)N3CCOCC3)cc12)Nc1ccc(F)c(F)c1 | inactive: 27.7% |

| SMILES | growth rescue (activation) |
| --- | --- |
| O=C(Nc1cc2c(cc1C(=O)c1ccc(Br)cc1)OCCO2)c1ccc(Cl)cc1 | inactive: -0.281% |
| CC(C)c1ccc(N(CC(=O)N2CCN(Cc3ccccc3)CC2)S(C)(=O)=O)cc1 | inactive: -21.8% |
| Cc1ccccc1S(=O)(=O)NC(=O)C1(C)CCN1C(=O)CCc1ccccc1 (configuration not stated) | inactive: -12.4% |
| CSc1ccc(CN2CCC2(C)C(=O)NCc2ccc3c(c2)OCO3)cc1 (configuration not stated) | inactive: 8.29% |
| COC(=O)c1ccc(/C=C/c2nc3ccccc3c(=O)[nH]2)cc1 | inactive: 8.74% |
| Cc1cc(C)c2c(N)c(C(=O)c3ccc(Br)cc3)oc2n1 | inactive: 17.9% |
| Cn1c(=O)[nH]c(=O)c2c1nc(NCCCn1ccnc1)n2CCOc1ccccc1 | inactive: 12% |
| Cc1ccc(N2CC(=O)N(CC(=O)O)C2=O)cc1 | inactive: -1.19% |
| NC(=O)NC(Cc1ccccc1)C(=O)N1CCN(S(=O)(=O)c2ccc(Cl)cc2)CC1 (configuration not stated) | inactive: 6.16% |
| CCOc1ncccc1C(=O)Nc1ccc(S(=O)(=O)Nc2nccs2)cc1 | inactive: 28.3% |
| COc1cccc(CNC(=S)Nc2ccc3c(c2)c(=O)n(C)n3Cc2ccc(F)cc2)c1 | inactive: -5.08% |
| CCCCn1c(N)c(N(CC)C(=O)c2ccccc2C)c(=O)[nH]c1=O | inactive: 10.5% |
| COc1ccccc1N(CN1C(=O)c2ccccc2C1=O)C(=O)c1cccc(C)c1 | inactive: 3.49% |
| CN(C)/C=C1\C(=O)N(C)N=C1C(F)(F)F | inactive: 5.29% |
| COc1ccc(NC(=O)C2CCCN2C(=O)NC2CCCCC2)c(OC)c1 (configuration not stated) | inactive: 10.1% |
| Cc1cccc(NC(=O)N2C3CCCC2CC(NC(=O)C2CC2)C3)c1 (configuration not stated) | inactive: -22% |
| Cc1ccc(OC(C)C(=O)Nc2ccc(C)c(S(=O)(=O)Nc3ccc(C)cc3C)c2)cc1 (configuration not stated) | inactive: -4.95% |
| CC(=C\c1ccccc1)/C=C1/SC(=O)N(CCCC(=O)Nc2ccc(C(=O)O)cc2)C1=O | inactive: 1.67% |
| COc1ccc(N(CC(=O)Nc2nccs2)S(=O)(=O)c2c(C)[nH]c(=O)[nH]c2=O)cc1 | inactive: -3.73% |
| Cc1ccc(C2N(c3ccc(Cl)cc3)C(=O)N3CCCN23)cc1 (configuration not stated) | inactive: -2.19% |
| Cc1ccc(CN2CCN(/N=C/c3cc(Br)cc(Br)c3O)CC2)cc1 | inactive: -25.6% |
| O=C(NNS(=O)(=O)c1ccc([N+](=O)[O-])cc1)c1ccc([N+](=O)[O-])cc1 | inactive: -16.1% |
| Cc1cccc(CN2C(=O)CSc3ccc(C(=O)NC4CC4)cc32)c1 | inactive: 8.77% |

| SMILES | growth rescue (activation) |
| --- | --- |
| O=S(=O)(c1cccc(-c2nnc(SC(F)F)n2-c2ccccc2)c1)N1CCCCC1 | inactive: -11.1% |
| CCc1ccc2c(c1)C(NC(C)=O)C(=O)N2CCN1CCOCC1 (configuration not stated) | inactive: 5.32% |
| COc1ccc(CCNC(=O)c2c(Cl)ccc(Cl)c2OC)cc1OC | inactive: 22.3% |
| O=C(/C=C/c1ccc(Cl)cc1)NC(=S)Nc1ccc(C(=O)O)cc1 | inactive: -1.94% |
| COC(=O)C1=C(C(=O)c2ccc(C)cc2)C(c2ccc(O)c(OC)c2)n2nnnc2N1 (configuration not stated) | inactive: 26.5% |
| O=C(NCc1cccnc1)c1ccccc1NS(=O)(=O)c1ccc(F)cc1 | inactive: 5.06% |
| Cc1ccc(CN2C(=O)C(O)(CC(=O)c3ccc(C)cc3)c3ccccc32)cc1 (configuration not stated) | inactive: 2.26% |
| Cc1cc(C(=O)NCc2ccc(S(N)(=O)=O)cc2)ccc1[N+](=O)[O-] | inactive: 11.3% |
| CCN(CC)CCn1c2ccccc2c2cnc(N=CN(C)C)c(C#N)c21 | inactive: 13.8% |
| COc1ccc(Br)cc1/C=C(\C(=O)O)c1ccc(S(=O)(=O)N2CCCC2)s1 | inactive: 14.1% |
| CCCCN(C=O)c1c(CC)nc2c(OCc3ccc(Cl)cc3Cl)cccn12 | inactive: 0.0455% |
| O=C(NCCc1ccc(Cl)cc1)c1n[nH]c2ccccc12 | inactive: 13.3% |
| Cc1ccc(S(=O)(=O)NCc2cn3c(C)csc3n2)cc1 | inactive: 7.69% |
| CN(C)CCNC(=O)C1Cc2c(-c3ccccc3Oc3ccccc3)ccnc2O1 (configuration not stated) | inactive: -7.21% |
| Cc1oc2ccc(OC(=O)COc3c(F)c(F)c(F)c(F)c3F)cc2c1C(=O)OC(C)C | inactive: -4.24% |
| CCC(=O)NC(=S)Nc1cc(C(=O)O)ccc1OC | inactive: -2.39% |
| COc1ccc(CNC(=O)CN(Cc2ccc(F)cc2)C(=O)CCC(=O)Nc2nccs2)cc1 | inactive: 9.21% |
| Cc1cc(C(=O)N(NC(=O)C(C)C)c2ccccc2)cs1 | inactive: -9.61% |
| O=C(Nc1ccccn1)c1cc(-c2cccnc2)nc2ccc(Br)cc12 | inactive: -23.9% |
| O=C(NCCCn1ccnc1)/C(=C/c1ccco1)NC(=O)c1ccco1 | inactive: -8.78% |
| O=C(NCCc1ccc(Cl)cc1)c1cc2ccccn2n1 | inactive: 21.1% |
